Measured values: PubChem BioAssay AID1379 (National Center for Advancing Translational Sciences (NCATS), 2008)
About 560 (0.28%) of roughly 200,000 compounds were called active. Inconclusive results, whose numbers are uncertain, are shown with a selection of clear calls. Calls follow the shape of the dose curve; as a rule, active = well fitted inhibition curve with a large enough effect; inconclusive = small, poorly fitted or top-dose-only effect; inactive = flat fitted curve, though single readings scatter. No potency is given beside an inconclusive call; the fits are too rough.

target: Luciferin 4-monooxygenase (Photuris pensylvanica) (UniProt Q27757); test: Counterscreen for Luciferase (Kinase-Glo TM) Inhibition; conditions: ATP luminescence, 8 min; series mostly up to 38.3 µM; activity change, negative = inhibition: at the top concentration; also: nearly all actives have a fitted effect of over 60% in size
Method in brief: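 Inhibition of Kinase-Glo luciferase light generation was assessed at 10 uM ATP in pH 7.2 imidazole buffer, with luminescence measured after eight minutes at ambient temperature.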
% is scaled to controls: 0 for no effect and ±100 for the full control effect; potency is read from the fitted curve at half-maximal effect; tags tell the direction and shape of the fitted curve.

Row | SMILES | Potency | activity change, negative = inhibition
1 | COc1ccc(/C=C/c2noc(-c3ccccc3O)n2)cc1 | inconclusive [inhibitor, partial curve] | 
2 | CNc1ccccc(-c2ccc3cc4c(cc3n2)OCO4)c1=O | inconclusive [inhibitor, partial curve] | 
3 | Cn1cccc1C(=O)C(=O)Nc1ccccc1 | active: 12.6 µM | 
4 | CN(C)c1ccc(N/C=C/C(=O)c2ccccc2)cc1 | active: 3.98 µM | 
5 | Cc1ccc(C(=O)N/N=C/c2ccc3c(c2)OCO3)o1 | inconclusive [inhibitor, partial curve] | 
6 | N#C/C(=C(/O)CN1CCOCC1)c1nc(-c2ccccc2)cs1 |  | inactive: -1.95%
7 | O=C(NCCc1ccccn1)C1CCCN(S(=O)(=O)Cc2ccccc2)C1 (stereo not drawn) |  | inactive: 0.467%
8 | CCCN1C=CC(=C2C(=O)c3ccccc3C2=O)C=C1 | active: 4.47 µM | 
9 | Cc1cccc(NC2=NC(=S)N(CC#N)C23CCCCC3)c1 |  | inactive: 1.06%
10 | Cc1ccccc1C(=O)Nc1ccc2c(c1)OCO2 | inconclusive [inhibitor, partial curve] | 
11 | COC(=O)c1cn(NC(=O)/C=C/c2ccc(OC)c(OC)c2)c(=O)c2ccccc12 |  | inactive: -1.38%
12 | O=c1oc2ccccc2cc1-c1nc2ccccc2o1 | inconclusive [inhibitor, partial curve] | 
13 | O=S1(=O)C=CC(Nc2ccccc2)C1 (stereo not drawn) |  | inactive: -0.603%
14 | O=C(Nc1ccc(C(=O)N2CCCC2)cc1)c1ccc2c(c1)OCO2 | active: 12.6 µM | 
15 | COc1ccc(/C=C/C(=O)c2cc3c(cc2N)OCO3)cc1 | inconclusive [inhibitor, partial curve] | 
16 | COCCn1c(C)cc(C(=O)COC(=O)c2n[nH]c3ccccc23)c1C | inconclusive [inhibitor, partial curve] | 
17 | CCOC(=O)c1cnc(-n2nc(C)cc2C)nc1Nc1ccc(C)cc1 |  | inactive: 2.23%
18 | O=C(c1ccccc1)c1cc(-c2ccccc2)on1 | active: 11.2 µM | 
19 | Nc1ccc2nc(-c3ccccc3)sc2c1 | active: 7.94 µM | 
20 | c1ccc2[nH]c(SCC3CCCCO3)nc2c1 (stereo not drawn) | inconclusive [inhibitor, single point] | 
21 | Cn1c(NC(=O)c2cc(-c3ccc4c(c3)OCO4)nc3ccccc23)cc(=O)n(C)c1=O | inconclusive [inhibitor, single point] | 
22 | Cc1nc(N=Nc2cc(S(=O)(=O)O)c3cc([N+](=O)[O-])cc(S(=O)(=O)O)c3c2)c(COP(=O)(O)O)c(C=O)c1O | inconclusive [inhibitor, partial curve] | 
23 | O=C(Nc1ccc2c(c1)OCCO2)c1ccccc1F | inconclusive [inhibitor, single point] | 
